The campaign covered roughly 52,000 compounds. About 4,300 (8.3%) were called active. Cut-off read from the data, not from the text of the source: active = survival mostly below about 52% (no sharp cut-off); inactive = mostly above about 56%. Some of the results follow.

The test system of the assay is DeltatarO mutant. In words: S. aureus survival, RN4220 and DeltatarO strains – OD600, teichoic acid synthesis inhibitors, primary screen (AID 463173). The note with it: S. aureus RN4220 wild type/DeltatarO growth, OD600, 18 h, stronger effect = lower value, screened at 18.75 µg/mL (by protocol).
Regarding `Cc1csc2nc(COc3ccc(NC(=O)COc4ccccc4)cc3)cc(=O)n12`, the survival is inactive: 104%.

With `CCN(Cc1ccccc1)C(=O)Cn1c(=O)n(-c2cccc(C)c2)c(=O)c2c1c1cc(C)ccc1n2C`, the survival is inactive: 78%.

With `Cc1ccc2oc3c(c(=O)c2c1)C(c1ccc([N+](=O)[O-])cc1)N(CCCN1CCOCC1)C3=O` (stereo not given), the survival is inactive: 76%.

`COc1ccc(-c2nc(SCC(=O)Nc3ccc4c(c3)OCCO4)c(-c3ccc(F)cc3)[nH]2)cc1OC`: the survival was inactive: 50%.

Consider `Cc1ccc(CNC(=O)CN(c2cccc(C)c2C)S(=O)(=O)c2ccccc2)cc1`, for which the survival was inactive: 73%.

As for `CCC(CC)C(=O)Nc1ccc2nc(SCC(=O)N3CCc4ccccc43)sc2c1`, the survival was inactive: 109%.

On to `CCOc1ccc(C(=O)Nc2cccc(NC(=O)c3ccc(C(C)(C)C)cc3)c2)cc1Br`, for which the survival was inactive: 81%.

Take `Cn1c2ccccc2c2cnn(CC(=O)N3CCN(c4cccc(C(F)(F)F)c4)CC3)c(=O)c21`: the survival was inactive: 77%.

As to `O=C(CSc1nnnn1C1CCCC1)c1ccc2c(c1)OCCO2`, the survival is active: 70%.

As to `Cc1cccc(N2CCN(S(=O)(=O)c3cc(Cl)ccc3Cl)CC2)c1C`, the survival was inactive: 146%.

In the case of `CC(=O)c1cccc(NC(=O)C2CCCN(C(=O)c3cnn(-c4ccccc4)c3-n3cccc3)C2)c1` (stereo not given), the survival is inactive: 96%.

For `COc1ccc(NC(=O)CN2C(=O)C(c3ccc(C)cc3)=NC23CCCCCC3)cc1Cl`, the survival was inactive: 96%.

For `Cc1ccc(NC(=O)c2ccc(CNS(=O)(=O)c3ccc4c(c3)C(C)(C)C(=O)N4C)cc2)cc1`, the survival was inactive: 90%.

`CN(C)CCNC(=O)C(=O)NCC(c1cccnc1)N1CCN(c2ccccc2)CC1` (stereo not given): the survival is active: 54%.

For `COc1cccc(-c2nc(SCC(=O)NCC3CCCO3)c(-c3ccc(Cl)cc3)[nH]2)c1` (stereo not given), the survival is inactive: 63%.

As to `COc1ccc2c(c1)c(=O)c(S(=O)(=O)c1ccccc1)cn2CC(=O)Nc1ccc2c(c1)OCO2`, the survival was inactive: 65%.

For the compound `CCCN(C(=O)Cn1ncc2c([nH]c3ccccc32)c1=O)c1ccc(F)cc1`, the survival was inactive: 101%.

With `CC(=O)c1cccc(NC(=O)CCCSc2nc(-c3ccco3)cc(C(F)(F)F)n2)c1`, the survival is active: 31%.

Turning to `CCOC(=O)C1CCCN(C(=O)c2ccc3c(c2)N(Cc2ccccc2F)C(=O)c2ccccc2S3=O)C1` (stereo not given), the survival is inactive: 86%.

On to `COc1ccc(CCNC(=O)CCn2c(=O)c3ccccc3n(CC(=O)Nc3cc(Cl)ccc3C)c2=O)cc1OC`, for which the survival was inactive: 75%.

`CCc1ccccc1NC(=O)Nc1cc(C(=O)NCc2ccccc2OC)ccc1N1CCCC1`: the survival is inactive: 87%.

As for `O=C(CCn1nc(-c2ccccc2)c2ccccc2c1=O)Nc1cccnc1`, the survival was inactive: 105%.

On to `Cc1cc(=O)[nH]c(SC(C)C(=O)NC2CCCCC2)n1` (stereo not given), for which the survival was inactive: 77%.

Turning to `O=C(O)C1CC=CCC1C(=O)N1CCCC1` (stereo not given), the survival was inactive: 102%.

Take `CCc1ccc(NC(=O)CC2C(=O)N(c3ccc(OC)cc3)C(=O)N2Cc2cccs2)cc1` (stereo not given): the survival was inactive: 101%.

Regarding `COc1ccc(CC(=O)NCC2OCCc3ccccc32)cc1OC` (stereo not given), the survival is inactive: 88%.

In the case of `Cc1ccc(C(=O)Nc2ccc3oc(-c4cc(Br)ccc4Cl)nc3c2)cc1`, the survival was inactive: 70%.

In the case of `O=C(Nc1cccc(Cl)c1Cl)c1cc(S(=O)(=O)N2CCCc3ccccc32)ccc1F`, the survival is inactive: 88%.

In the case of `COc1cc(OC)c(N(C)C(=O)CSc2c3c(nc4ccc(Cl)cc24)CCCC3)cc1Cl`, the survival is active: 33%.

For the compound `COc1ccc(C(=O)Nc2ccc3oc(-c4cc(Cl)ccc4Cl)nc3c2)cc1Br`, the survival is inactive: 71%.

Take `CCOC(=O)c1cnc2c(C)cc(C)cc2c1Nc1ccccc1OCC`: the survival is active: -1%.

`Cc1nn2c(-c3ccco3)ccnc2c1-c1ccc(Cl)cc1`: the survival was inactive: 94%.

Turning to `Clc1cccc(-n2ncc3c(Nc4ccc5c(c4)OCCO5)ncnc32)c1`, the survival is inactive: 55%.

As to `Cc1ccc(C)c(Cn2c(=O)n(-c3ccc(F)cc3)c(=O)c3sc4ccccc4c32)c1`, the survival was inactive: 95%.

Take `COc1ccc(N2CCN(C(=O)Cn3c(-c4cccs4)cc4ccccc43)CC2)cc1`: the survival was inactive: 80%.

Take `CC(=O)N1CCc2cc(S(=O)(=O)NC(Cc3ccccc3)C(=O)Nc3ccc(C)cc3C)ccc21` (stereo not given): the survival was inactive: 68%.

Consider `O=C(CSc1nc2ccsc2c(=O)n1Cc1ccccc1F)NCc1ccccc1Cl`, for which the survival is inactive: 108%.

For the compound `Cc1ccc(NC(=O)Nc2cccs2)c(C)c1`, the survival was inactive: 91%.

`CCN1C(=O)c2ccccc2Sc2ccc(NC(=O)c3cccc(C)c3)cc21`: the survival is inactive: 89%.

Consider `COc1ccc(N(C(=O)c2cccc(C)c2)S(=O)(=O)c2ccc3c(c2)n(C)c(=O)n3C)cc1`, for which the survival is inactive: 91%.

As to `CCOC(=O)c1cc(OC(=O)c2ccccc2OC)n(-c2ccccc2)n1`, the survival was inactive: 54%.

Consider `O=C(Cn1c(=O)n(-c2ccccc2)c(=O)c2ccc(C(=O)NCc3ccc4c(c3)OCO4)cc21)Nc1ccc(F)c(Cl)c1`, for which the survival was inactive: 65%.

`CN(CCCNC(=O)c1cc2c(=O)n(C)c3ccccc3c2s1)Cc1ccccc1`: the survival was inactive: 94%.

Take `COC(=O)Cn1c2ccccc2c2nc(C)sc21`: the survival is inactive: 79%.

Turning to `CC(C(=O)O)N1C(=O)/C(=C/c2ccco2)SC1=S` (stereo not given), the survival was inactive: 99%.

With `COC(=O)c1c(NC(=O)/C=C/c2ccc(OC)cc2)sc2c1CCC2`, the survival is inactive: 102%.

Turning to `COc1ccc(CNC(=O)CSc2ncc3c(n2)-c2cc(Cl)ccc2N(C)S3(=O)=O)cc1`, the survival is inactive: 75%.

As to `CC(C)c1cnc2c(c1SCC(=O)Nc1ccc(C(N)=O)cc1)c(=O)n(C)c(=O)n2C`, the survival was inactive: 72%.

On to `CCOC(=O)Cn1c(-c2cccs2)cc2cc(Cl)ccc21`, for which the survival was inactive: 59%.

Take `CCOC(=O)C1(C(=O)OCC)CC1(C(=O)OCC)C(=O)OCC`: the survival was inactive: 89%.

As to `O=C(Cn1c(=O)ccc2cc(S(=O)(=O)N3CCCC3)ccc21)Nc1ccc(Cl)cc1`, the survival is inactive: 91%.

Consider `Cc1ccc(Cl)cc1NC(=O)CSCc1cnn(-c2ccccc2)c1-n1cccc1`, for which the survival was inactive: 70%.

With `Cn1nnnc1SCCCNCc1ccccc1OCc1ccc(F)cc1`, the survival is active: 57%.

As for `CCN(C(=O)c1cn(C)c(=O)c2ccccc12)c1cccc(C)c1`, the survival is inactive: 162%.

Regarding `Cc1cccc(NS(=O)(=O)c2ccc3c(c2)CCN3C(=O)C2CC2)c1C`, the survival was inactive: 64%.

The values above are taken from PubChem BioAssay AID463173 (ICCB-Longwood Screening Facility, Harvard Medical School, 2010).
